# Several values for one entry are separate records, joined by “and”; a condition that tells them apart may be missing. Equal values may be shown once. Screen size: about 420,000 compounds; about 64,000 (15%) were called active. This list was built around the results that the source calls inconclusive (neither active nor inactive); the mix of calls is not that of the screen. Calls come from the whole dose curve; as a rule, active = well fitted inhibition curve with a large enough effect; inconclusive = small, poorly fitted or top-dose-only effect; inactive = flat fitted curve, though single readings scatter. A potency beside an inconclusive call is a rough fit, not a confirmed value.
# Assay: qHTS for Inhibitors of human tyrosyl-DNA phosphodiesterase 1 (TDP1): qHTS in cells in absence of CPT; note: nearly all actives have a fitted effect of over 55% in size
# Settings: DT40 Tdp1-/- hTDP1 cells, no CPT, ATP luminescence, 48 h; activity change, negative = growth inhibition: at 46.2 µM (top of the series) unless noted
# Outline: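 Growth of hTDP1-complemented DT40 Tdp1-knockout cells is measured by ATP luminescence after at least 48 hr compound exposure at 37 °C, with DMSO substituting for the 20 nM CPT used in the parallel screen.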
# % is set by controls: 0 for no effect and ±100 for the full control effect; potency is the fitted concentration of half-maximal effect; tags give direction and shape of the fitted curve.
SMILES,Potency,"activity change, negative = growth inhibition"
CN(C(=O)c1ccco1)c1nnc(C23CC4CC(CC(C4)C2)C3)s1,"inconclusive: 29.1 µM [inhibitor, single point]",
CC1(Oc2cccc(F)c2)CCN(Cc2ccc3ccccc3c2)C1 (stereo unspecified),"inconclusive: 23.1 µM [inhibitor, single point]",
CN(C)CCOc1ccc(-c2c(-c3ccccc3)sc3ccccc23)cc1,active: 6.51 µM,
Cc1ccc(NC(=O)c2cc3c(s2)CCCC3)cc1S(=O)(=O)Nc1ccccc1Cl,active: 23.1 µM,
COc1ccc(C(=O)NCC(=O)N/N=C/C(C)=C/c2ccco2)cc1OC,"inconclusive: 20.6 µM [inhibitor, partial curve]",
Cc1cccc(NC(=S)NC(=O)/C=C/c2ccco2)n1,"inconclusive: 29.1 µM [inhibitor, single point]",
COc1ccc(-c2ccc(C)cc2)cc1[C@H]1[C@H]2C=CC[C@@H](C)[C@@H]2C(=O)N1Cc1ccccc1,"inconclusive: 29.1 µM [inhibitor, single point]",
O=C1N/C(=C\c2ccc(N3CCOCC3)c(F)c2)C(=O)N1Cc1ccccc1,inactive,
COc1ccc(-n2ncc3c(N4CCN(c5cc(C)ccc5C)CC4)ncnc32)cc1,"inconclusive: 0.651 µM [inhibitor, full curve, poor fit]",
CC(C)C(=O)Nc1c(C(=O)N2CCN(c3ncccn3)CC2)oc2ccccc12,inactive,
CC(=O)N1CCCC(N2CCN(c3cccc(C(F)(F)F)c3)CC2)C1 (stereo unspecified),inactive,
CCN(CC)CC(=O)Nc1ccc2c(c1)N(C(=O)CN(CC)CC)c1ccccc1CC2,"inconclusive: 20 µM [inhibitor, single point]",
COc1ccc(N2CCN(C(=O)C(CC(C)C)NS(=O)(=O)c3ccc4nc(C)sc4c3)CC2)cc1 (stereo unspecified),inactive,
NS(=O)(=O)c1ccc(NC(=S)NC2CC2)cc1,inactive,
C[C@@H](/C=C\c1cccc(Oc2ccc(F)cc2)c1)N(O)C(N)=O,"inconclusive: 18.8 µM [inhibitor, partial curve]",
O=C(N/N=C/c1cc([N+](=O)[O-])ccc1O)C1CCCCC1,active: 4.61 µM,
CCOC(=O)C1=C(CN2c3ccccc3CC2C)NC(=O)NC1c1ccccc1 (stereo unspecified),"inconclusive: 25.9 µM [inhibitor, single point]",
COc1ccc(C)cc1S(=O)(=O)N1CCC2(CC1)OCCN2S(=O)(=O)c1ccccc1,,inconclusive: -33.5% [inhibitor]
CCC(C)C(=O)Nc1nc2ccc(OC)cc2s1 (stereo unspecified),active: 16.4 µM,
CNC(=O)c1cc2c(cn1)[nH]c1ccccc12,"inactive and inconclusive: 33.5 µM [inhibitor, single point] and inconclusive: 29.1 µM [inhibitor, single point]",
Cc1cc(=O)oc2cc(O)ccc12,"inconclusive: 20.6 µM [inhibitor, single point]",
CCCCc1ccc(/C(C)=N/Nc2cc(N3CCOCC3)nc(C)n2)cc1,active: 23.1 µM,
CCCC(O)(c1ccc(CC)cc1)C(CN1CCOCC1)c1ccccc1 (stereo unspecified),active: 18.4 µM,
CC1CCCN(C(=O)COc2ccc(Nc3ccccc3)cc2)C1 (stereo unspecified),"inconclusive: 29.1 µM [inhibitor, single point]",

SMILES,Potency,"activity change, negative = growth inhibition"
COc1ccccc1-c1cc(C2CC2)nc(N)c1C#N,inactive,
O=C(CN1CCN(c2ncc(C(F)(F)F)cc2Cl)CC1)N1CCN(c2ncc(C(F)(F)F)cc2Cl)CC1,active: 15.8 µM,
COc1ccc(/C=C2\SC(=O)N(CCC(=O)Nc3ccc(S(=O)(=O)Nc4nccs4)cc3)C2=O)cc1,"inconclusive: 23.1 µM [inhibitor, partial curve]",
CSc1nc2ccc(NS(=O)(=O)c3cccc(Cl)c3Cl)cc2s1,"inconclusive: 10.3 µM [inhibitor, partial curve]",
NC(=S)N=Nc1c(O)n(CCCl)c2ccc(Cl)cc12,active: 23.1 µM,
CCOC(=O)N1CCN(C(=O)C(C)N(c2ccc(Oc3ccccc3)cc2)S(C)(=O)=O)CC1 (stereo unspecified),active: 13 µM,
Cc1cc(N2C(=O)C(O)=C(C(=O)c3cccs3)C2c2cccc(Br)c2)no1 (stereo unspecified),"inconclusive: 8.2 µM [inhibitor, single point]",
CCn1nc(NC(=O)c2ccncc2)c2cc3cc(C)ccc3nc21,active: 23.1 µM,
O=C(CSc1ccccc1)NNC(=O)c1ccccc1O,"inconclusive: 29.1 µM [inhibitor, single point]",
CCN(CC)C(=O)c1cccc(-c2csc(C(O)c3cccc(Cl)c3)n2)c1 (stereo unspecified),active: 16.4 µM,
COC(=O)c1ccccc1NC(=O)CSc1nc2ccccc2nc1Cc1ccc(F)cc1,inactive,
Cc1cc(C)n2nc(S(=O)(=O)NC(C)(C)C)nc2n1,inactive,
Cc1nc(S(=O)(=O)c2ccc(Cl)cc2)c(NCc2ccccc2)o1,"inconclusive: 29.1 µM [inhibitor, single point]",
Cc1ncoc1C(=O)N1CCCC(C(=O)c2ccc3c4c(cccc24)CC3)C1 (stereo unspecified),"inconclusive: 23.1 µM [inhibitor, single point]",
O=C1C=C(c2cccc(Br)c2)C[C@@H](c2ccc(Cl)cc2)C1,"inconclusive: 29.1 µM [inhibitor, single point]",
Cc1cccc(N2CCN(c3nnnn3-c3ccccc3)CC2C)c1 (stereo unspecified),"inconclusive: 29.1 µM [inhibitor, single point]",
O=C(Cn1cnc2cc([N+](=O)[O-])ccc2c1=O)NCCc1ccc(Cl)cc1,"inconclusive: 7.31 µM [inhibitor, full curve, poor fit]",
COc1ccc(CCn2c(SCC(=O)Nc3cc(C)on3)nc3ccsc3c2=O)cc1OC,"inconclusive: 11.2 µM [inhibitor, partial curve]",
CNc1ccc(-c2nc(-c3ccncc3)no2)cc1[N+](=O)[O-],inactive,
CCOC(=O)c1c(-c2ccccc2)oc2ccc(OCC(O)CNCCN(C)C)cc12 (stereo unspecified),"inconclusive: 20.6 µM [inhibitor, single point]",
CSc1nc2ccc(NC(=O)c3ccccn3)cc2s1,"inconclusive: 29.1 µM [inhibitor, single point]",
Cc1ccc(-c2nn(-c3ccccc3)cc2/C=N/n2c(-c3ccncc3)n[nH]c2=S)cc1,"inconclusive: 16.4 µM [inhibitor, single point]",
CCOc1ccc(C2=Nn3c(nnc3-c3ccccn3)SC2)cc1,inactive,
CCc1c(C)c2nncn2[nH]c1=O,"inconclusive: 18.4 µM [inhibitor, single point]",

SMILES,Potency,"activity change, negative = growth inhibition"
CC(=O)c1ccc(NC(=O)CN2C(=O)/C(=C/C(C)=C/c3ccccc3)SC2=S)cc1,,inconclusive: -9.58% [inhibitor]
COc1ccc2c(c1)c(C(=O)N/N=C/c1ccc(OC)c(OC)c1)c(C)n2C,active: 11.6 µM,
Cc1cc2c(c(-c3ccc(Cl)cc3)c1)OC(CNC(=O)CCC(=O)N(C)C)C2 (stereo unspecified),"inconclusive: 29.1 µM [inhibitor, single point]",
CCN(CC(=O)Nc1ccc(NC(C)=O)cc1)C(=O)CN1C(=O)NC2(CCCC2)C1=O,inactive,
CC(=O)Nc1ccc(CN(C)c2c(C)nc3ccc(C(=O)N(C)Cc4ccccc4)cn23)cc1,active: 16.4 µM,
c1ccc(Sc2ncnc3c2oc2ccccc23)cc1,inactive,
COc1ccc(C(=O)N2CCN(C(=O)c3ccc(-c4ccccc4)cc3)CC2)cc1OC,"inconclusive: 29.1 µM [inhibitor, partial curve, poor fit]",
O=C(OCCc1cc2ccccc2c(=O)o1)c1ccccc1C(F)(F)F,"inconclusive: 29.1 µM [inhibitor, single point]",
CSc1ccc(OC2(C)CCN(Cc3ccc4c(c3)OCCO4)C2)cc1 (stereo unspecified),"inconclusive: 25.9 µM [inhibitor, single point]",
CCCNC(=O)c1cc(Cl)c(NC(=O)C2=CSCCO2)cc1OC,"inconclusive: 29.1 µM [inhibitor, single point]",
COc1ccccc1C1C(C(=O)c2ccco2)=C(O)C(=O)N1c1cc(C)on1 (stereo unspecified),"inconclusive: 29.1 µM [inhibitor, single point]",
CSC1=NCCN1S(=O)(=O)c1ccc2ccccc2c1,"inconclusive: 29.1 µM [inhibitor, single point]",
Brc1cnc(N2CCOCC2)nc1N1CCCCC1,"inconclusive: 18.4 µM [inhibitor, single point]",
COc1ccc(CNC(=O)CCc2c(C)nc3cc(-c4ccc(OC)cc4OC)nn3c2C)cc1,"inconclusive: 16.4 µM [inhibitor, single point]",
CC1Oc2ccccc2N(CC(=O)c2ccccc2)C1=O (stereo unspecified),"inconclusive: 10.3 µM [inhibitor, partial curve, poor fit]",
CC1CCN(Cc2nc3c(c(=O)n(C)c(=O)n3C)n2CCc2ccccc2)CC1,,inconclusive: -37.7% [inhibitor]
Cc1ccc(CN2CCC(Oc3cccc(C(=O)N(C)CCN(C)C)c3)CC2)cc1C,"inconclusive: 23.1 µM [inhibitor, single point]",
Cc1sc2ccccc2[n+]1CCCCI,active: 20 µM,
COc1ccc2c(c1OC)C(=O)NC(C)=C(C(=O)OC(C)(C)C)C2O (stereo unspecified),inactive,
COCCNc1nc(NCCOC)c2sc(-c3ccccc3)cc2n1,active: 25.9 µM,
COc1ccc(N2CCN(C(=O)Cc3ncc(C(F)(F)F)cc3Cl)CC2)cc1,"inconclusive: 29.1 µM [inhibitor, single point]",
OCCCNc1cc(-c2ccnc(Nc3cccc(Cl)c3)n2)ccn1,active: 0.164 µM,
CC(C)c1ccc(/C=C/C(=O)NCc2ccc(S(N)(=O)=O)cc2)cc1,"inconclusive: 25.9 µM [inhibitor, single point]",

# From PubChem BioAssay AID686978 (National Center for Advancing Translational Sciences (NCATS), 2013)
